Hit rate of the full screen: of about 190,000 compounds, about 400 (0.21%) were called active. The inconclusive results got no clear call from the source; some entries with a clear call stand among them for comparison.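 Rule for the calls: active = percent activity GTP binding at least 20 points away from the 100% baseline, either down as inhibitor or up as activator; inconclusive = compound flagged as likely green fluorescent from well-wide comparison; inactive = the rest.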
These molecules were tested against Cell division control protein 42 homolog (Homo sapiens) (UniProt P60953) (assay: wildtype Cdc42 fluorescent GTP binding changes, either direction – biochemical, multiplex bead flow cytometry, Bodipy-GTP, primary screen (AID 761;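 note: median bead fluorescence of bound Bodipy-FL-GTP at 100 nM; 0% = excess unlabeled GTP control and 100% = no compound control; below 100% means less GTP binding so inhibitor and above means activator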)). Settings: GST-Cdc42 beads, at 10 µM, actives lie on both sides.
Chain of UniProt P60953 (P60953 whole entry, looked up): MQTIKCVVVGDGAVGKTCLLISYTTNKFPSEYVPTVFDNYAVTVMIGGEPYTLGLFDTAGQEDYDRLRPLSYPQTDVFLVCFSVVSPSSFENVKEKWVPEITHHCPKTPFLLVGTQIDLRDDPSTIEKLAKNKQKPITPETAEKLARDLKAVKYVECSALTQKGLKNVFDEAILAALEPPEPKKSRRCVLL

SMILES	percent activity (GTP binding)
CCN(CC)CCN1C(=O)c2ccccc2NC1c1cc(OC)c(OC)c(OC)c1 (stereo unspecified)	inconclusive: 112%
CCC(C)(C)NC(=O)CN(Cc1ccc2c(c1)OCO2)C(=O)CCC(=O)Nc1ccccn1	inconclusive: 103%
CCCCCC(=O)Oc1cccc(N2C(=O)C3CCCCC3C2=O)c1 (stereo unspecified)	inactive: 100%
CCOC(=O)C(/C=C(\C#N)C(=O)OCC)=C(/N)N1CCN(c2ccccc2)CC1	inconclusive: 100%
COc1cc(/C=C/C(=O)OCC(=O)Nc2ccc(S(=O)(=O)N3CCCC3)cc2)ccc1O	inconclusive: 97%
O=C(Nc1nccs1)c1ccc2c(=O)n3c(nc2c1)CCCCC3	inactive: 106%
O=C(Nc1cccc2ncccc12)C(c1ccccc1)c1ccccc1	inactive: 96%
O=C(CSc1nnc(SCc2ccc(Cl)cc2)s1)c1ccc2c(c1)OCO2	inconclusive: 90%
Cc1ccc(S(=O)(=O)N(C)C)cc1NC(=O)COC(=O)c1ccc(Cl)cc1	inactive: 113%
Cc1cc(=O)[nH]c(N/N=C/c2c(C)nn(-c3ccccc3)c2C)n1	inconclusive: 91%
Cc1cc(C)n(CC(C)NCc2cn[nH]c2-c2ccc(C)c(C)c2)n1 (stereo unspecified)	inactive: 100%
O=C(Nc1ccc(S(=O)(=O)N2CCCc3ccccc32)cc1)C1CCCO1 (stereo unspecified)	inactive: 117%
COc1ccc(OC)c(-c2c3cc(O)c(=O)cc-3oc3cc(O)c(O)cc23)c1	inconclusive: 157%
Cc1cc(=O)oc2ccc(OCC(=O)N3CCC(C)CC3)cc12	inconclusive: 107%
Cc1ccc(C)c(Cn2c(C(C)O)nc3ccccc32)c1 (stereo unspecified)	inconclusive: 103%
CCc1ccc(NC(=O)CSc2nc3n[nH]c(C)c3c(=N)n2-c2cccc(OC)c2)cc1	inconclusive: 87%
COc1cccc(/C=N/n2c(N)c(S(=O)(=O)c3cccs3)c3nc4ccccc4nc32)c1OC	inactive: 81%
CC(=O)Nc1ccc(Nc2nc(C)c([N+](=O)[O-])c(Nc3ccccc3)n2)cc1	inactive: 99%
O=C1/C(=C/c2cccnc2)SC(=S)N1CC1CCCO1 (stereo unspecified)	inconclusive: 96%
CC(=O)Nc1ccc(NC2=C(Cl)C(=O)c3ccccc3C2=O)cc1	inconclusive: 93%
CCn1cnc2c1c(=O)n(CC(=O)Nc1cc(C)on1)c(=O)n2Cc1ccccc1	inconclusive: 112%
Cc1c(Cl)cccc1NC(=O)CC1SCCNC1=O (stereo unspecified)	inconclusive: 106%
COc1cc(C(=O)N(CCc2ccccc2)C2CC3CCC(C2)N3C)cc(OC)c1OC (stereo unspecified)	inconclusive: 111%

SMILES	percent activity (GTP binding)
O=C(CCCN1C(=O)c2ccccc2C1=O)Oc1ccc(F)cc1	inactive: 108%
COc1ccc(CCNc2cc(=O)[nH]c(N)n2)cc1	inconclusive: 65%
Cn1ncc(C(N)=O)c1NC(=S)NC(=O)c1ccc(Br)o1	inconclusive: 81%
Cc1ccc(-c2cc(C(=O)N3CCN(c4ncccn4)CC3)c3cc(Br)ccc3n2)o1	inactive: 96%
Cc1nnc(-c2cnn(C)c2N)n1Cc1ccccc1	inconclusive: 107%
O=C(COC(=O)c1cccnc1Nc1cccc(C(F)(F)F)c1)NCc1ccc2c(c1)OCO2	inconclusive: 86%
CC1=NC(=O)C(N=Nc2cccc(C(=O)O)c2)N1c1ccccc1 (stereo unspecified)	inconclusive: 93%
COc1ccc(-c2cc(-c3ccccc3)nc3ncnn23)cc1	inconclusive: 92%
Nc1nc(N)c2sc3nc(C(F)(F)F)cc(C(F)(F)F)c3c2n1	inconclusive: 85%
COc1ccccc1-c1ccc(SCC(=O)NCc2ccc3c(c2)OCO3)nn1	inconclusive: 87%
NS(=O)(=O)c1cccnc1Nc1c(Cl)cccc1Cl	inconclusive: 150%
Cc1c(C2OC(=O)C3(CCCCC3)C(=O)C2(C)C)c(=O)n(-c2ccccc2)n1C (stereo unspecified)	inconclusive: 108%
Cc1ccc(CN2CCN(CC(=O)O)C2=O)cc1	inactive: 99%
CC(CNC(=O)CC(C)(C)C)NC(=O)CC(C)(C)C (stereo unspecified)	inconclusive: 100%
Cc1ccc(SCC(=O)Nc2ccc(N3CCOCC3)cc2)c(C)c1	inactive: 106%
Cc1ccc(-c2nnc(SCC(=O)N/N=C/c3ccc(C)s3)n2-c2ccccc2)cc1	inconclusive: 99%
CCCNC(=O)c1cc2nc(-c3ccccc3)cc(C(F)(F)F)n2n1	inconclusive: 104%
O=C(C1CCN(c2ncnc3c2sc2cccc(F)c23)CC1)N1CCOCC1	inactive: 103%
Cc1ccc(-c2nnc(Nc3ccccc3)o2)cc1	inconclusive: 107%
Cc1nn(CCCC(=O)O)c(C)c1[N+](=O)[O-]	inactive: 95%
COc1ccccc1NC(=O)c1ccccc1C(=O)O	inconclusive: 93%
COC(=O)c1scc(C)c1N/N=C(\C)c1cc(F)c(Cl)cc1F	inactive: 106%
O=C(Nc1cccc(O)c1)c1cccc(S(=O)(=O)N2CCCC2)c1	inconclusive: 83%

SMILES	percent activity (GTP binding)
Nc1[nH]n(-c2ccccc2)c(=O)c1N=Nc1ccc2c(c1)OCCO2	inactive: 90%
Cc1ccc(-c2ccc(/C=N/NC(=O)CN3CCCC3)o2)cc1Cl	inconclusive: 121%
CC1CCc2onc(C(=O)NCc3ccco3)c2C1 (stereo unspecified)	inconclusive: 108%
N#C/C(=C/c1ccc(O)c([N+](=O)[O-])c1)C(=O)Nc1ccccc1	active: 79%
O=C(CSc1ccc2nnc(-c3cccc(F)c3)n2n1)NCC1CCCO1 (stereo unspecified)	inconclusive: 108%
O=C(Cc1ccccc1)NCC(=O)OCC(=O)c1cccc([N+](=O)[O-])c1	inconclusive: 100%
CCn1ncc(Br)c1C(=O)Nc1ccccc1OC	inconclusive: 94%
CCC(=O)Nc1cccc(NC(=S)NC(=O)c2ccccc2C)c1	inactive: 95%
COc1cccc(C(=O)C2CCCN(C(=O)CCC3=NNC(=O)CC3)C2)c1 (stereo unspecified)	inconclusive: 92%
Cc1[nH]n2c(=O)c3c(nc2c1-c1ccccc1)CCC3	inconclusive: 89%
CC(=O)Oc1ccccc1C1C[C@]2(C)CC(=O)NC2N1C(C)=O (stereo partly specified)	inactive: 97%
Cc1cnc(NC(=O)CSc2nnc(C)s2)s1	inconclusive: 106%
CCCN(CC1CC1)C(=S)Nc1ccc(Oc2ccccc2)cc1	active: 79%
COc1ccc(OC)c(C(C(=O)NCc2ccco2)N(C(=O)Cn2nnc3ccccc32)C2CC2)c1 (stereo unspecified)	active: 126% [activator]
COc1ccc(-c2cc(C(=O)OCC(=O)c3ccc(C)c([N+](=O)[O-])c3)c3ccccc3n2)cc1	inconclusive: 103%
CCOC(=O)C1(CCCc2ccccc2)CCN(CC(O)CO)CC1 (stereo unspecified)	inconclusive: 93%
O=C(O)c1ccccc1C(=O)N1CCN(c2ccccc2)CC1	inconclusive: 103%
CCOC(=O)C1(CCc2ccccc2)CCN(C(=O)CN2C(=O)CSC2=O)CC1	inactive: 92%
C/C(CCC(=O)OC[C@H]1O[C@H](C#Cc2ccccc2)C=C[C@@H]1Oc1ccc(C)cc1)=N\O[C@@H](C)CN1CCCCc2nc(C)c(C)cc21	inactive: 102%
O=C1NC(Cc2ccccc2)C(=O)N1Cc1cc([N+](=O)[O-])cc2c1OCOC2 (stereo unspecified)	inconclusive: 92%
CC(COc1ccccc1)N1CCC(CO)(Cc2ccccc2)CC1 (stereo unspecified)	inactive: 98%
O=C(Cc1ccc(Cl)cc1)NNC(=O)c1cnccn1	inconclusive: 103%
O=C(COc1cc(Cl)ccc1Cl)Nc1nnc(CC(=O)N2CCOCC2)s1	active: 71%

SMILES	percent activity (GTP binding)
CC(=O)OC(C)C[N+](C)(C)C (stereo unspecified)	inconclusive: 100%
CCOC(=O)Cc1cc(=O)n2[nH]c(C)cc2n1	inconclusive: 105%
CN=c1scc(-c2cccs2)n1/N=C/c1ccc(O)c(O)c1O	inconclusive: 101%
O=C(OCC(=O)N1CCN(C(=O)c2ccco2)CC1)c1cc(=O)c2ccccc2o1	inconclusive: 102%
COC(=O)c1ccc(C2C(Oc3ccccc3)C(=O)N2CCc2ccc(F)cc2)cc1 (stereo unspecified)	inconclusive: 103%
CC1Sc2ccc(C(=O)O)cc2NC1=O (stereo unspecified)	inconclusive: 97%
O=C(c1ccccc1NS(=O)(=O)c1cccc([N+](=O)[O-])c1)N1CCOCC1	inconclusive: 111%
Cc1sc2nc(-c3ccncc3)[nH]c(=O)c2c1-c1ccccc1	inconclusive: 89%
CSc1ccccc1C(=O)NCc1ccc(C)cc1	inconclusive: 92%
O=C(Oc1coc(CSc2ncccn2)cc1=O)c1cccs1	inactive: 97%
Cn1c(SCC(N)=O)nnc1C1CCN(C(=O)NCc2ccccc2)CC1	inconclusive: 105%
CCOc1ccc(CCNS(=O)(=O)c2cccc3nsnc23)cc1OCC	inconclusive: 104%
Cc1ccc(/C=C/C(=O)Nc2sc3c(c2C#N)CCCC3)o1	inactive: 103%
O=C1CCCN1C(=O)CCC(=O)N1CCCC1=O	inconclusive: 106%
O=C(O)c1ccc(/C=N/Nc2ccc(C(F)(F)F)cn2)cc1	inconclusive: 92%
O=C(NC1CCCC1)C1C2C=CC(C2)C1C(=O)N1CCOCC1 (stereo unspecified)	inactive: 101%
Cn1c(=N)c(S(=O)(=O)c2ccc(F)cc2)cc2c(=O)n3ccccc3nc21	inconclusive: 80%
CCN(CC)S(=O)(=O)c1cccc(-c2n[nH]c(=S)n2/N=C/c2ccc(C(=O)OC)cc2)c1	inconclusive: 82%
COc1cc(O)cc2occ(-c3ccc(O)cc3)c(=O)c12	inconclusive: 90%
COc1ccccc1NC(=O)CN(C)S(=O)(=O)c1cc(C)ccc1OC	inconclusive: 104%
Cc1[nH]c2ccccc2c1[C@H]1[C@@H](CC#N)C1(C)C	inconclusive: 103%
COc1cccc(CN2CCNC(=O)C2CC(=O)NCc2cc(C(C)C)no2)c1 (stereo unspecified)	inconclusive: 90%

— PubChem BioAssay AID761 (NMMLSC, 2007)
